# Reference: the supplement of paper PMC8728848
# The list shows a part of the results.
# Tests used:
# Experiment in all cases: glycan array binding signal (z-score within array); higher = stronger binding
# Conditions in all cases: glycan notation: IUPAC condensed, linker removed
# [1] = target: Gal(b1-4)GlcNAc(b1-6)GalNAc
# Outline: (§1)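 Arrays were curated from the Consortium for Functional Glycomics database, 3228 in total, and kept only where the protein sequence was available. Binding is expressed as a within-array Z-score. This score was averaged across arrays of the same protein sequence at different concentrations or buffers and across linkers, and negative values can be read as non-binding.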
# [2] = target: Gal(b1-4)GlcNAc(b1-6)[Gal(b1-3)]GalNAc
# Outline: as §1
# [3] = target: Gal(b1-4)GlcNAc(b1-6)[Gal(b1-4)GlcNAc(b1-3)]GalNAc
# Outline: as §1
# Gal(b1-4)GlcNAc6P = target: Gal(b1-4)GlcNAc6P
# Outline: as §1
# Gal(b1-6)Gal = target: Gal(b1-6)Gal
# Outline: as §1
# Gal3S(b1-3)GalNAc = target: Gal3S(b1-3)GalNAc
# Outline: as §1
# Gal3S(b1-3)GlcNAc = target: Gal3S(b1-3)GlcNAc
# Outline: as §1
# [4] = target: Gal3S(b1-3)[Fuc(a1-4)]GlcNAc
# Outline: as §1
# Gal3S(b1-4)Glc = target: Gal3S(b1-4)Glc
# Outline: as §1
# Gal3S(b1-4)Glc6S = target: Gal3S(b1-4)Glc6S
# Outline: as §1
# Gal3S(b1-4)GlcNAc = target: Gal3S(b1-4)GlcNAc
# Outline: as §1
# [5] = target: Gal3S(b1-4)[Fuc(a1-3)]Glc6S
# Outline: as §1
# [6] = target: Gal3S(b1-4)[Fuc(a1-3)]GlcNAc
# Outline: as §1
# [7] = target: Gal3S(b1-4)[Fuc(a1-3)]GlcNAc6S
# Outline: as §1
# Gal3S4S(b1-4)GlcNAc = target: Gal3S4S(b1-4)GlcNAc
# Outline: as §1
# Gal3S6S(b1-4)GlcNAc = target: Gal3S6S(b1-4)GlcNAc
# Outline: as §1
# Gal3S6S(b1-4)GlcNAc6S = target: Gal3S6S(b1-4)GlcNAc6S
# Outline: as §1
# Gal4S(b1-4)GlcNAc = target: Gal4S(b1-4)GlcNAc
# Outline: as §1
# Gal4S6S(b1-4)GlcNAc = target: Gal4S6S(b1-4)GlcNAc
# Outline: as §1
# Gal6P(b1-4)GlcNAc = target: Gal6P(b1-4)GlcNAc
# Outline: as §1
# Gal6S(b1-3)GlcNAc = target: Gal6S(b1-3)GlcNAc
# Outline: as §1
# Gal6S(b1-3)GlcNAc6S = target: Gal6S(b1-3)GlcNAc6S
# Outline: as §1
# Gal6S(b1-4)Glc = target: Gal6S(b1-4)Glc
# Outline: as §1
# Gal6S(b1-4)Glc6S = target: Gal6S(b1-4)Glc6S
# Outline: as §1
# Gal6S(b1-4)GlcNAc = target: Gal6S(b1-4)GlcNAc
# Outline: as §1
# Gal6S(b1-4)GlcNAc6S = target: Gal6S(b1-4)GlcNAc6S
# Outline: as §1
# GalNAc(a1-3)Gal = target: GalNAc(a1-3)Gal
# Outline: as §1
# GalNAc(a1-3)GalNAc = target: GalNAc(a1-3)GalNAc
# Outline: as §1
# [8] = target: GalNAc(a1-3)GalNAc(b1-3)Gal(a1-4)Gal(b1-4)Glc
# Outline: as §1
# [9] = target: GalNAc(a1-3)GalNAc(b1-3)Gal(a1-4)Gal(b1-4)GlcNAc
# Outline: as §1
# GalNAc(b1-3)Gal = target: GalNAc(b1-3)Gal
# Outline: as §1
# [10] = target: GalNAc(b1-3)Gal(a1-4)Gal(b1-4)GlcNAc
# Outline: as §1
# [11] = target: GalNAc(b1-3)Gal(a1-4)Gal(b1-4)GlcNAc(b1-3)Gal(b1-4)Glc
# Outline: as §1
# [12] = target: GalNAc(b1-3)Gal(a1-6)Gal(b1-4)Glc
# Outline: as §1
# GalNAc(b1-3)GalNAc = target: GalNAc(b1-3)GalNAc
# Outline: as §1
# GalNAc(b1-3)GlcNAc = target: GalNAc(b1-3)GlcNAc
# Outline: as §1
# GalNAc(b1-4)Gal(b1-4)Glc = target: GalNAc(b1-4)Gal(b1-4)Glc
# Outline: as §1
# GalNAc(b1-4)GlcNAc = target: GalNAc(b1-4)GlcNAc
# Outline: as §1
binder,measurement,setting,value
PX9937B-bvu-524-33-524 (Bacteroides vulgatus) (protein) GTAYWKNPDQFTAFNTGLHALLREKSYNFFLLGEPRADIYGDNPIGGEASQGMERLPFNTINKENVGISNYGDMYKIINQINQMIAKTTETTILTEATQNYYLGEAYGMRAYLYFHLLRSWGDVVLYLDYTEGQNLDLSNITKGVSPATEVMEQIKKDIQASENAFGSDYSFKLGRHFWSAAATQMLKGEAYLWSGRQMNGGNSDYTIAKNAFENVKKADVGLVTSSFKDIFSFENKKNKEMIFTIHNGKDEYEMWGGYYRMRLIPAQDKMVKIYCDENGNSFVGTPDAQLNGLTQLQVRREFYFKGFRNNDTRWTTSLKAVYKKDAQGVVSYFGPITYKFQGTMLEGGSTRSFLDDFPIYRYADCLLQLAMAKVLLGEDPTEEINAVRERAYGSKYFNEHKAEIAYPNDNDPEFYTDNKWMKPDNAGALEAILKERLREFMFEGKRWYDIRLLGWDYVHQYSSAEQSRLLWPIDAGTLTNNSALKQTPGYE,glycan array binding signal (z-score),[1],0.003
same,glycan array binding signal (z-score),[2],-0.222
same,glycan array binding signal (z-score),[3],0.133
same,glycan array binding signal (z-score),Gal(b1-4)GlcNAc6P,0.028
same,glycan array binding signal (z-score),Gal(b1-6)Gal,-0.232
same,glycan array binding signal (z-score),Gal3S(b1-3)GalNAc,-0.399
same,glycan array binding signal (z-score),Gal3S(b1-3)GlcNAc,-0.31
same,glycan array binding signal (z-score),[4],-0.263
same,glycan array binding signal (z-score),Gal3S(b1-4)Glc,-0.024
same,glycan array binding signal (z-score),Gal3S(b1-4)Glc6S,-0.203
same,glycan array binding signal (z-score),Gal3S(b1-4)GlcNAc,-0.174
same,glycan array binding signal (z-score),[5],-0.366
same,glycan array binding signal (z-score),[6],-0.276
same,glycan array binding signal (z-score),[7],0.317
same,glycan array binding signal (z-score),Gal3S4S(b1-4)GlcNAc,0.159
same,glycan array binding signal (z-score),Gal3S6S(b1-4)GlcNAc,-0.32
same,glycan array binding signal (z-score),Gal3S6S(b1-4)GlcNAc6S,0.045
same,glycan array binding signal (z-score),Gal4S(b1-4)GlcNAc,-0.361
same,glycan array binding signal (z-score),Gal4S6S(b1-4)GlcNAc,-0.381
same,glycan array binding signal (z-score),Gal6P(b1-4)GlcNAc,-0.419
same,glycan array binding signal (z-score),Gal6S(b1-3)GlcNAc,-0.232
same,glycan array binding signal (z-score),Gal6S(b1-3)GlcNAc6S,0.218
same,glycan array binding signal (z-score),Gal6S(b1-4)Glc,-0.101
same,glycan array binding signal (z-score),Gal6S(b1-4)Glc6S,0.737
same,glycan array binding signal (z-score),Gal6S(b1-4)GlcNAc,-0.153
same,glycan array binding signal (z-score),Gal6S(b1-4)GlcNAc6S,-0.297
same,glycan array binding signal (z-score),GalNAc(a1-3)Gal,-0.066
same,glycan array binding signal (z-score),GalNAc(a1-3)GalNAc,-0.035
same,glycan array binding signal (z-score),[8],-0.294
same,glycan array binding signal (z-score),[9],-0.328
same,glycan array binding signal (z-score),GalNAc(b1-3)Gal,-0.236
same,glycan array binding signal (z-score),[10],-0.491
same,glycan array binding signal (z-score),[11],-0.329
same,glycan array binding signal (z-score),[12],-0.287
same,glycan array binding signal (z-score),GalNAc(b1-3)GalNAc,-0.375
same,glycan array binding signal (z-score),GalNAc(b1-3)GlcNAc,-0.278
same,glycan array binding signal (z-score),GalNAc(b1-4)Gal(b1-4)Glc,0.093
same,glycan array binding signal (z-score),GalNAc(b1-4)GlcNAc,0.205
